Source: ChEMBL document CHEMBL4888484, “Replenishing the malaria drug discovery pipeline: Screening and hit evaluation of the MMV Hit Generation Library 1 (HGL1) against asexual blood stage Plasmodium falciparum ,using a nano luciferase reporter read-out” (2022)
Among all 150,000 compounds or so, about 540 (0.36%) showed an effect of 50% or more. The list shows a part of the results.

The molecules below were run on Plasmodium falciparum (assay: Primary screen in NF54 nanoGlo assay, in single point, at 2uM, 72h; a lower Z score goes with more inhibition). Settings: timepoint 72 hour.
Assay type: functional, Erythrocyte

Row | Compound | % Inhibition [%] | Z score
1 | CN(Cc1nc(C(C)(C)C)no1)C[C@@H]1CCCO1 | -2 | 0.22
2 | CS(=O)(=O)N1CCC(C(=O)N[C@H]2CC3(CCCCC3)Oc3ccccc32)CC1 | -6 | 1.09
3 | Nc1nccnc1C(=O)N1CCC(c2nc3ccccc3s2)CC1 | -14 | 1.99
4 | O=C1CCCN1CC[C@H]1CN(C(=O)COCc2cccnc2)c2ccccc21 | -8 | 1.52
5 | COc1cccc(CN2CCOc3ccc(CCC(=O)NCC4CC4)cc3C2)c1 | -5 | 0.56
6 | CC1CCCC(NC(=O)CNC(=O)C2CCCCC2)C1C (stereo not given) | -7 | 0.92
7 | CCOC(=O)CC1NCC(C)NC1=O (stereo not given) | -8 | 1.05
8 | CC(=O)N1C[C@H]2CC[C@@H](C1)N(C(=O)C(C)(C)c1ccccc1)C2 | -11 | 1.39
9 | CC(C)c1nc([C@H](C)NC(=O)CN(C)C2CC2)cs1 | 6 | -0.57
10 | CCOC(=O)Cc1cnc(NC(=O)[C@H]2CCN(Cc3ccccc3)C2)s1 | -15 | 2.25
11 | O=C(NC[C@@H](c1ccco1)n1cccn1)c1ccoc1 | 11 | -1.52
12 | Cc1c(C(=O)NCc2nccn2C)cnn1C | -8 | 1.12
13 | Cc1ccc(-c2cc3n(n2)CCCN(C(=O)COc2ccc(Cl)cc2)C3)cc1 | -6 | 0.97
14 | Cc1ccc(S(=O)(=O)NC(c2ccc3c(c2)CCO3)[C@H]2C[C@@H](O)C2)s1 (stereo not given in full) | -4 | 0.61
15 | O=C(c1nc(C2CC2)nn1-c1cccc2cccnc12)N1CCCCCC1 | 6 | -1.02
16 | CCOC(=O)N1CCN(C(=O)CN2Cc3cc(OC)ccc3O[C@@H](CC)C2)CC1 | -2 | 0.3
17 | CC(C)n1ncc2cc(CNCC3(CO)CCC3)cnc21 | -2 | 0.16
18 | C[C@@H](c1nc(CC2CCN(C)CC2)no1)n1cnc2ccccc2c1=O | -5 | 0.54
19 | Cc1cc(S(=O)(=O)NCc2cncn2CC(C)C)c(C)s1 | -7 | 1.35
20 | CNC(=O)Cn1cc(NCC2(C)CN(C(=O)OC(C)(C)C)C2)cn1 | -6 | 1.01
21 | CCOc1ccccc1NC(=O)N1C[C@H](Oc2ccccc2)C[C@@H]1C(=O)N1CCOCC1 | 6 | -0.83
22 | O=C(CN[C@H](c1ccccc1)c1cccs1)Nc1ccc2c(c1)OCO2 | -7 | 0.9

Row | Compound | % Inhibition [%] | Z score
23 | Cc1noc(C)c1CO[C@H]1COCC[C@@H]1Nc1ccc2ccccc2n1 | -17 | 2.56
24 | Cc1cc(Cl)ccc1OCC(=O)Nc1nnc(C2CC2)s1 | 2 | -0.24
25 | CCOC(=O)[C@H](C)OC(=O)c1cccc(CN(C)C)c1 | 2 | -0.19
26 | CN1CCCC1C1CCCN1C(=O)c1cccn1C (stereo not given) | -1 | 0.1
27 | COc1ccc(CN(C)S(=O)(=O)N(C)C(C)C)cc1 | 0 | -0.02
28 | C[C@@](Cc1ccccc1)(NC(=O)CCc1cscn1)C(=O)O | -13 | 1.33
29 | CN1C[C@@H](N)C[C@H]1C(=O)N1CCc2onc(-c3ccc(-c4ccccc4)cc3)c2C1 | -4 | 0.52
30 | Cc1cnn(-c2ccc(NC(=O)N3CCN(C4CC4)CC3)cc2F)c1 | -8 | 0.89
31 | COCc1nsc(N2CCC(c3ccccc3)CC2C)n1 (stereo not given) | 39 | -5.61
32 | CCCCCNC(=O)N[C@@]1(C)CCS(=O)(=O)C1 | -2 | 0.2
33 | Cc1ccc(C(N)=O)c(N2CCC(n3cc(C4CCCC4)nn3)CC2)n1 | -28 | 2.51
34 | CCOC(=O)[C@H](CCc1ccccc1)N[C@H](C)C(=O)N1Cc2ccccc2C[C@H]1C(=O)O | -10 | 1.38
35 | CCN(CC)S(=O)(=O)c1ccc(C(=O)N(CC(C)C)CC(C)C)cc1 | 10 | -1.61
36 | COC(C(=O)N1CCOc2c(Cl)cc(Br)cc21)C1CCOC1 (stereo not given) | -1 | 0.17
37 | CCN(C)C(=O)c1cccc(Nc2c(Oc3ccc4c(c3)CCC4)cnn(-c3ccc(OC)cc3)c2=O)c1 | 3 | -0.48
38 | CCOc1nc2c(c(C)nn2-c2cccc(F)c2)c(C)c1CCC(=O)NCc1cccc(Cl)c1 | 12 | -1.76
39 | Cc1nnc(COc2ccc3c(c2)CCNC3=O)o1 | -5 | 1.03
40 | OC(COCC1CCCO1)CN1CCN(c2ncccn2)CC1 (stereo not given) | -4 | 0.45
41 | O=C(c1cnccn1)N1CC[C@H](c2ccnc(-c3ccncc3)c2)C1 | 13 | -1.67
42 | Nc1nc2c(c(-c3cccnc3)n1)CN(C(=O)C1CCCC1)C2 | -26 | 2.82
43 | Cc1nn2c(c1C#N)NC(=O)[C@@H]2CC(=O)Nc1ccccc1Cl | -6 | 0.76
44 | CCCc1noc(Cn2cnc3snc(C)c3c2=O)n1 | -15 | 1.91

Row | Compound | % Inhibition [%] | Z score
45 | Cc1cc(CN2CCC3(CC2)C[C@@H]3c2nc(-c3cccnc3)no2)on1 | -6 | 0.93
46 | O=C(C[C@@H]1C[C@H]2O[C@H](CNCc3ccccc3Cl)[C@@H](O)[C@H]2O1)N1CCOCC1 | 10 | -1.15
47 | O=C1CCC2(CCN(C(=O)c3cc(Cl)ccc3O)CC2)N1 | -2 | 0.31
48 | CC(NCC1(C(O)C(C)C)CC1)c1ccc(=O)[nH]n1 (stereo not given) | -14 | 1.88
49 | COCCN(Cc1cc2ccc(Cl)cc2nc1N(C)C)C(=O)CCc1ccc(C)cc1 | -4 | 0.75
50 | CCN(C(=O)[C@H]1CCN(C)[C@@H](C)C1)C1CCCC1 | 31 | -0.9
51 | CNS(=O)(=O)c1ccccc1Br | 15 | -1.7
52 | CN1CCCC[C@@H](C(=O)Nc2ncccc2CO)C1=O | -8 | 1.26
53 | Cc1c[nH]c(CN(C)c2cc([C@H]3CCOC3)nc(NCCO)n2)n1 | -1 | 0.19
54 | CC1CCC(N(C[C@H]2CCCO2)C(=O)Cn2cnnn2)CC1 (stereo not given in full) | -11 | 1.1
55 | C=CCn1cc(CN2CCC3(CC2)CN(CCN2CCN(CC)CC2)C(=O)O3)cn1 | 3 | -0.54
56 | Cc1cccc(CC2(NC(=O)C[C@H]3CC3(F)F)CC2)c1 | 0 | 0.03
57 | CCOc1ccc(C(=O)N2CCN(S(=O)(=O)c3ccc4c(c3)NC(=O)CO4)CC2)cc1OCC | 4 | -0.37
58 | C=C[C@H]1OCC[C@@H]1CNC(=O)N1CC(F)C1 | -1 | 0.22
59 | O=C(CCC1CCN(C(=O)c2cnco2)CC1)Nc1ccccc1Cl | -7 | 0.92
60 | CC(C)(C(=O)NC[C@@]12CCC[C@@H]1OCC2)c1ccc2c(c1)OCO2 | -7 | 0.94
61 | O=C(CCn1cc([C@H]2CCOC2)nn1)Nc1nccs1 | -14 | 2.35
62 | Cc1cc(O)cc(O)c1C(=O)Cc1ccc2cccnc2c1 | -8 | 1.02
63 | Cc1ccc2[nH]c(CN(C)C(=O)NCC3(Cn4nc(C)cc4C)CC3)nc2c1 | -4 | 0.8
64 | COc1ccc(C)cc1N1CCN(C(=O)c2cccs2)[C@@H](C)C1=O | -3 | 0.62
65 | O=C(CCc1ccc(C(=O)O)cc1)NC1CCC(C(F)(F)F)CC1 (stereo not given) | -9 | 1.69
66 | N#Cc1cccc(N2Cc3cnn(CCO)c3C2)n1 | -3 | 0.56

Row | Compound | % Inhibition [%] | Z score
67 | Cc1c(C(=O)NCc2cccc(F)c2)cnn1-c1nccc(-c2ccco2)n1 | -16 | 2.1
68 | O=C1N[C@@H]2CCN(S(=O)(=O)c3cccc(F)c3)[C@@H]2C(=O)N1c1ccc(F)cc1 | 28 | -3.14
69 | Brc1ccc(C2(NCc3ccccn3)CC2)cc1 | -16 | 2.24
70 | COc1ccccc1CC(=O)N1CC[S@+]([O-])C(C)(C)C1 | -11 | 0.96
71 | CC(C)(C)c1noc([C@@H]2COc3ccc(O)cc3O2)n1 | -7 | 1.32
72 | O=C(NCc1ccc(Br)cc1)[C@H]1CCCN(c2ccnc(-c3cccc(F)c3)n2)C1 | -4 | 0.44
73 | Cn1cnnc1[C@@H]1CCCN1Cc1c(F)cccc1OC(F)(F)F | 3 | -0.38
74 | Cc1cc(C)n(C)c(=O)c1C(=O)N(C)Cc1cc2cc(F)ccc2[nH]1 | 17 | -2.26
75 | Cc1ccc(NCc2ncnn2C)c(F)c1 | -2 | 0.28
76 | O=C(C[C@@H]1COC2(C1)CN(C(=O)CCc1nc3ccccc3s1)C2)N1CCOCC1 | -5 | 0.78
77 | CCc1cc(NC(=O)Cc2cccs2)nn1-c1ccc(OC)cc1 | 5 | -0.59
78 | Nc1ncnc(N2CCc3c(F)cc(F)cc3C2)c1Cl | -7 | 0.77
79 | CN(C)S(=O)(=O)c1ccc2c(c1)nnn2CCNC(=O)Nc1ccc(Br)cc1 | -4 | 0.56
80 | NC(=O)N1CCCN(C(=O)[C@@H](F)CC2CCCCC2)CC1 | -5 | 0.55
81 | Cc1nn(C)cc1C(C)NC(=O)C(C)CCOc1ccccc1 (stereo not given) | -2 | 0.31
82 | COc1ccc2cc3c(nc2c1)N(C(=O)c1ccc(S(=O)(=O)N2CCCC2)cc1)CC3 | -3 | 0.32
83 | FC(F)(F)C1(C(F)(F)F)CCN(CCc2ccccn2)C1 | -2 | 0.27
84 | CCOC(=O)c1cn(C)nc1C(F)F | -12 | 1.17
85 | N#Cc1cccc(NCc2nnn(CC(F)(F)F)n2)c1 | -28 | 3.24
